This is one part of the list.
tested on: HSkMC (human skeletal muscle cells); assay: cytotoxicity call (relative viability < 0.9); conditions: 10 µM

Structure (SMILES)	cytotoxicity call
CO[C@H]1CN(C)C(=O)c2cc(NC(=O)C3CCOCC3)ccc2OC[C@@H](C)N(Cc2cccnc2)C[C@H]1C	inactive
Cc1noc(C)c1S(=O)(=O)Nc1ccc2c(c1)C(=O)N([C@H](C)CO)C[C@H](C)[C@@H](CN(C)Cc1ccc(C(F)(F)F)cc1)OCCCC[C@H](C)O2	inactive
c1cnc2nc[nH]c2c1	inactive
Cn1cnc(S(=O)(=O)N[C@H]2C=C[C@H](CC(=O)NCC3CC3)O[C@@H]2CO)c1	inactive
C[C@H](CO)N1C[C@H](C)[C@@H](CN(C)Cc2ccc(Cl)c(Cl)c2)Oc2ccc(NC(=O)Nc3ccc(C(F)(F)F)cc3)cc2CC1=O	active
Cc1ccc(S(=O)(=O)N(C)C[C@H]2Oc3ccc(NC(=O)CCCN(C)C)cc3CC(=O)N([C@H](C)CO)C[C@@H]2C)cc1	inactive
C[C@H]1CN([C@@H](C)CO)C(=O)CCCn2nncc2CO[C@H]1CN(C)S(=O)(=O)c1ccc(Oc2ccccc2)cc1	inactive
C[C@@H]1CN([C@@H](C)CO)C(=O)CCCn2nncc2CO[C@@H]1CN(C)S(=O)(=O)c1ccc(C#N)cc1	inactive
C[C@@H]1CN([C@@H](C)CO)C(=O)c2cc(NC(=O)CCCCCC(=O)Nc3ccccc3N)ccc2O[C@@H]1CN(C)C(=O)Nc1ccc(F)cc1	inactive
C[C@H](CO)N1C[C@H](C)[C@H](CN(C)C(=O)Nc2ccc(F)cc2)Oc2ccc(NC(=O)Nc3cccc4ccccc34)cc2CC1=O	inactive
COc1cccc(NC(=O)N(C)C[C@H]2Oc3ncc(C#Cc4ccncc4)cc3C(=O)N([C@@H](C)CO)C[C@@H]2C)c1	inactive
C[C@H]1CN([C@@H](C)CO)S(=O)(=O)c2ccc(C#CCN(C)C)cc2O[C@@H]1CN(C)Cc1ccccn1	inactive
C[C@H]1CCCCO[C@@H](CN(C)C(=O)Nc2cccc3ccccc23)[C@@H](C)CN([C@@H](C)CO)C(=O)c2cc(NS(=O)(=O)c3cccs3)ccc2O1	inactive
COC(=O)NN=Cc1c[n+]([O-])c2ccccc2[n+]1[O-]	inactive
C[C@@H]1CN([C@H](C)CO)C(=O)c2cc(N(C)C)ccc2O[C@H]1CN(C)S(=O)(=O)c1ccc(Cl)cc1	inactive
O=c1[nH]c(=O)n(Cc2ccccc2)c2nc[nH]c12	inactive
C[C@@H]1CN(C)S(=O)(=O)CCO1	inactive
C[N+](C)(CCOc1ccccc1)Cc1ccccc1.O=C(O)c1cc2ccccc2c(Br)c1O	inactive
C=CCOC(=O)[C@@H]1[C@H]2C(=O)O[C@H](c3ccccc3)[C@H](c3ccccc3)N2[C@H](c2ccc(OCCOC(=O)[C@@H]3C[C@@H]4C(=O)NCC(=O)N4[C@@H]3c3ccc(O)cc3)cc2)[C@@]12C(=O)Nc1ccc(I)cc12	inactive
COc1ccc(S(=O)(=O)Nc2ccc3c(c2)C(=O)N([C@H](C)CO)C[C@@H](C)[C@H](CN(C)C(=O)C2CCCCC2)OCCCC[C@@H](C)O3)cc1	inactive
C[C@@H]1CN([C@@H](C)CO)C(=O)c2cc(N(C)C)ccc2O[C@@H](C)CCCCO[C@@H]1CN(C)S(=O)(=O)c1cn(C)cn1	inactive
O=C(Nc1nccs1)[C@@H]1[C@@H](CO)[C@@H]2Cn3c(cccc3=O)[C@H]1N2C(=O)C1CC1	inactive
C[C@H]1CCCCO[C@H](CN(C)C(=O)Nc2ccccc2)[C@@H](C)CN([C@@H](C)CO)C(=O)c2cc(NC(=O)CCC(F)(F)F)ccc2O1	inactive
C[C@H]1CN([C@@H](C)CO)C(=O)c2cc(-c3ccc(C(=O)N(C)C)cc3)cnc2O[C@H]1CN(C)C(=O)C1CC1	inactive
C[C@@H]1CN([C@@H](C)CO)C(=O)c2cc(C#Cc3cccc(F)c3)cnc2O[C@@H]1CN(C)Cc1ccccn1	inactive
NCc1ccc2cc[nH]c(=O)c2c1	inactive
O=C(NO)c1ccc(-c2cn(CC(=O)N3CCOCC3)nn2)s1	inactive

tested on: HepG2; assay: cytotoxicity call (relative viability < 0.9); conditions: 10 µM

Structure (SMILES)	cytotoxicity call
COc1ccc(S(=O)(=O)N(C)C[C@@H]2Oc3ccc(N(C)C)cc3C(=O)N([C@H](C)CO)C[C@@H]2C)cc1	inactive
C[C@@H]1CCCCO[C@@H](CN(C)C(=O)Nc2ccc(C(F)(F)F)cc2)[C@H](C)CN([C@@H](C)CO)C(=O)c2cc(NC(=O)Nc3cccc4ccccc34)ccc2O1	inactive
O=S(=O)(NCC[C@@H]1CC[C@@H](NS(=O)(=O)c2cccc(Cl)c2)[C@@H](CO)O1)c1cccc(F)c1	inactive
O=C(C[C@@H]1C=C[C@H](NC(=O)c2ccncc2)[C@@H](CO)O1)NCc1ccncn1	inactive
C[C@@H]1CN([C@@H](C)CO)C(=O)c2cc(NC(=O)c3ccccc3)ccc2O[C@@H](C)CCCCO[C@@H]1CN(C)S(=O)(=O)c1ccc(Cl)cc1	inactive
CC(C)NC(=O)Nc1ccc2c(c1)C(=O)N([C@H](C)CO)C[C@H](C)[C@H](CN(C)C(=O)Nc1ccc(F)cc1)OCCCC[C@H](C)O2	inactive
CSCC[C@H](N)C(=O)O	inactive
C[C@H](CO)N1C[C@H](C)[C@@H](CN(C)C(=O)Nc2cccc3ccccc23)Oc2c(NC(=O)Nc3ccccc3)cccc2C1=O	inactive
C[C@@H](C(=O)O)n1ncccc1=O	inactive
Cc1ccccc1C(=O)Nc1ccc(C(=O)N2CCCC(O)c3cc(Cl)ccc32)c(C)c1 (configuration not stated)	inactive
NC1CCN(c2cccc(Cl)n2)CC1	inactive
C[C@@H]1CN([C@@H](C)CO)C(=O)c2c(c3ccccc3n2C)-c2ccccc2CO[C@H]1CN(C)C(=O)Nc1ccc(-c2ccccc2)cc1	inactive
CCCNC(=O)N(C)C[C@@H]1Oc2ncc(-c3ccc(C(=O)N(C)C)cc3)cc2C(=O)N([C@H](C)CO)C[C@H]1C	inactive
CO[C@H]1CN(C)C(=O)c2cc(NC(=O)C3CCOCC3)ccc2OC[C@@H](C)N(Cc2cccnc2)C[C@H]1C	inactive
Cc1noc(C)c1S(=O)(=O)Nc1ccc2c(c1)C(=O)N([C@H](C)CO)C[C@H](C)[C@@H](CN(C)Cc1ccc(C(F)(F)F)cc1)OCCCC[C@H](C)O2	inactive
c1cnc2nc[nH]c2c1	inactive
Cn1cnc(S(=O)(=O)N[C@H]2C=C[C@H](CC(=O)NCC3CC3)O[C@@H]2CO)c1	inactive
C[C@H](CO)N1C[C@H](C)[C@@H](CN(C)Cc2ccc(Cl)c(Cl)c2)Oc2ccc(NC(=O)Nc3ccc(C(F)(F)F)cc3)cc2CC1=O	active
Cc1ccc(S(=O)(=O)N(C)C[C@H]2Oc3ccc(NC(=O)CCCN(C)C)cc3CC(=O)N([C@H](C)CO)C[C@@H]2C)cc1	inactive
C[C@H]1CN([C@@H](C)CO)C(=O)CCCn2nncc2CO[C@H]1CN(C)S(=O)(=O)c1ccc(Oc2ccccc2)cc1	inactive

Structure (SMILES)	cytotoxicity call
C[C@@H]1CN([C@@H](C)CO)C(=O)CCCn2nncc2CO[C@@H]1CN(C)S(=O)(=O)c1ccc(C#N)cc1	inactive
C[C@@H]1CN([C@@H](C)CO)C(=O)c2cc(NC(=O)CCCCCC(=O)Nc3ccccc3N)ccc2O[C@@H]1CN(C)C(=O)Nc1ccc(F)cc1	inactive
C[C@H](CO)N1C[C@H](C)[C@H](CN(C)C(=O)Nc2ccc(F)cc2)Oc2ccc(NC(=O)Nc3cccc4ccccc34)cc2CC1=O	inactive
COc1cccc(NC(=O)N(C)C[C@H]2Oc3ncc(C#Cc4ccncc4)cc3C(=O)N([C@@H](C)CO)C[C@@H]2C)c1	active
C[C@H]1CN([C@@H](C)CO)S(=O)(=O)c2ccc(C#CCN(C)C)cc2O[C@@H]1CN(C)Cc1ccccn1	inactive
C[C@H]1CCCCO[C@@H](CN(C)C(=O)Nc2cccc3ccccc23)[C@@H](C)CN([C@@H](C)CO)C(=O)c2cc(NS(=O)(=O)c3cccs3)ccc2O1	inactive
COC(=O)NN=Cc1c[n+]([O-])c2ccccc2[n+]1[O-]	inactive
C[C@@H]1CN([C@H](C)CO)C(=O)c2cc(N(C)C)ccc2O[C@H]1CN(C)S(=O)(=O)c1ccc(Cl)cc1	inactive
O=c1[nH]c(=O)n(Cc2ccccc2)c2nc[nH]c12	inactive
C[C@@H]1CN(C)S(=O)(=O)CCO1	inactive
C[N+](C)(CCOc1ccccc1)Cc1ccccc1.O=C(O)c1cc2ccccc2c(Br)c1O	inactive
C=CCOC(=O)[C@@H]1[C@H]2C(=O)O[C@H](c3ccccc3)[C@H](c3ccccc3)N2[C@H](c2ccc(OCCOC(=O)[C@@H]3C[C@@H]4C(=O)NCC(=O)N4[C@@H]3c3ccc(O)cc3)cc2)[C@@]12C(=O)Nc1ccc(I)cc12	inactive
COc1ccc(S(=O)(=O)Nc2ccc3c(c2)C(=O)N([C@H](C)CO)C[C@@H](C)[C@H](CN(C)C(=O)C2CCCCC2)OCCCC[C@@H](C)O3)cc1	inactive
C[C@@H]1CN([C@@H](C)CO)C(=O)c2cc(N(C)C)ccc2O[C@@H](C)CCCCO[C@@H]1CN(C)S(=O)(=O)c1cn(C)cn1	inactive
O=C(Nc1nccs1)[C@@H]1[C@@H](CO)[C@@H]2Cn3c(cccc3=O)[C@H]1N2C(=O)C1CC1	inactive
C[C@H]1CCCCO[C@H](CN(C)C(=O)Nc2ccccc2)[C@@H](C)CN([C@@H](C)CO)C(=O)c2cc(NC(=O)CCC(F)(F)F)ccc2O1	inactive
C[C@H]1CN([C@@H](C)CO)C(=O)c2cc(-c3ccc(C(=O)N(C)C)cc3)cnc2O[C@H]1CN(C)C(=O)C1CC1	inactive
C[C@@H]1CN([C@@H](C)CO)C(=O)c2cc(C#Cc3cccc(F)c3)cnc2O[C@@H]1CN(C)Cc1ccccn1	inactive
NCc1ccc2cc[nH]c(=O)c2c1	inactive
O=C(NO)c1ccc(-c2cn(CC(=O)N3CCOCC3)nn2)s1	inactive

From the antibiotic and cytotoxicity screens of Wong et al. (2023)
